The supplement of paper PMC3334620
The full ranking holds about 33,000 sequences; the median of “E-score (-0.5 to 0.5)” is about -0.054, and the highest 2% start at about 0.39. The list shows a part of the results.

What follows are sequences tested against Ylr278c (UniProt Q05854) (assay: PBM E-score (8-mer binding enrichment) (E-score (-0.5 to 0.5)); higher = stronger / more preferred TF binding; most listed sequences are background and not binding sites). Conditions: protein concentration: 200 nM; construct: GST-DNA-binding domain.
Experimental: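 Universal 'all 10-mer' protein binding microarrays (Agilent AMADID 015681) probed with GST-tagged S. cerevisiae TFs (full-length or DBD) made by in vitro transcription/translation (PURExpress), about 100-200 nM. Bound TF was detected with fluorescent anti-GST. Each ungapped 8-mer (which stands for itself and its reverse complement) is scored by the PBM enrichment score (E-score), a modified Wilcoxon-Mann-Whitney statistic from -0.5 to +0.5, computed with the Universal PBM Analysis Suite. Scale: above 0.35 generally sequence-specific binding.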
In the case of CTAGACAG, the “PBM E-score” value was -0.045. In the case of ACTAGTAC, the “PBM E-score” value was -0.225. In the case of GAGACATA, the “PBM E-score” value was 0.0839. In the case of CGATCACA, the “PBM E-score” value was 0.0452. CCCTAATA was tested, and the “PBM E-score” value was -0.219. With GCTGTTGA the “PBM E-score” value was -0.0401. GCATTCAA was tested, and the “PBM E-score” value was -0.23. In the case of ACGATGAG, the “PBM E-score” value was -0.0386. For GTGTGCAA, the “PBM E-score” value was -0.177. In the case of CCACCCCA, the “PBM E-score” value was -0.155. With CGGACGCA the “PBM E-score” value was 0.272. ATATTACG was tested, and the “PBM E-score” value was 0.0625. In the case of CATAAGTA, the “PBM E-score” value was -0.152. CGCCTGAG was tested, and the “PBM E-score” value was -0.00521. GAAATAAA was tested, and the “PBM E-score” value was 0.0286. In the case of ACACACCT, the “PBM E-score” value was 0.101. CGACCGCG was tested, and the “PBM E-score” value was 0.237. With AATGGTAA the “PBM E-score” value was 0.0806. For CAAACTGA, the “PBM E-score” value was -0.0902. In the case of ATGGGACA, the “PBM E-score” value was -0.0454. With GCACGGCC the “PBM E-score” value was 0.153. In the case of ACTATGAT, the “PBM E-score” value was -0.222. In the case of ACATTAGC, the “PBM E-score” value was -0.076. With CATTAGAA the “PBM E-score” value was 0.00262. For ACTTACTC, the “PBM E-score” value was -0.0871. CGCCTCGC was tested, and the “PBM E-score” value was 0.0203. With CGCCCGTA the “PBM E-score” value was 0.128. For ACCACGAG, the “PBM E-score” value was -0.157. With AGCTTGTC the “PBM E-score” value was 0.023. For AATGATCG, the “PBM E-score” value was 0.134. For ATTTATAG, the “PBM E-score” value was -0.184. CAGGACAG was tested, and the “PBM E-score” value was -0.225. For ATCAAATC, the “PBM E-score” value was 0.00979. For CCGATTAC, the “PBM E-score” value was 0.261. For AATTGAGA, the “PBM E-score” value was 0.0618. For GAGGCCAA, the “PBM E-score” value was -0.0462. In the case of TACCACTA, the “PBM E-score” value was -0.219. With AAGAAACA the “PBM E-score” value was 0.0505. With GGGCACCC the “PBM E-score” value was -0.0395. For ACCAGTAT, the “PBM E-score” value was -0.00687. In the case of GTAGACCA, the “PBM E-score” value was -0.229. For AATATCGT, the “PBM E-score” value was -0.121. For TGCTAACA, the “PBM E-score” value was -0.0474. In the case of CGTTTCAA, the “PBM E-score” value was -0.0838. In the case of ATTGGATA, the “PBM E-score” value was -0.139. In the case of ACCTGGCA, the “PBM E-score” value was -0.0877. For ATCTTATG, the “PBM E-score” value was -0.0906. In the case of ACTGGGTA, the “PBM E-score” value was -0.173. In the case of AAATTTCA, the “PBM E-score” value was -0.365. With AGGGCAGG the “PBM E-score” value was -0.294. In the case of CGGGAGGA, the “PBM E-score” value was 0.25. With GATGGCGA the “PBM E-score” value was 0.057. In the case of AGAATACA, the “PBM E-score” value was -0.00157. In the case of AACGAGCG, the “PBM E-score” value was -0.00334. AAGTCGCG was tested, and the “PBM E-score” value was 0.0326. In the case of ATTCTGCG, the “PBM E-score” value was 0.173. For AATCTGGC, the “PBM E-score” value was -0.0102. GATGCTCA was tested, and the “PBM E-score” value was 0.0423. In the case of GGACAGTA, the “PBM E-score” value was 0.144. With CACCTGAA the “PBM E-score” value was -0.0681. In the case of CTGCTTTA, the “PBM E-score” value was 0.0716. In the case of TCGGTTCA, the “PBM E-score” value was -0.211. With CACCTATC the “PBM E-score” value was 0.086. For CTACCGGA, the “PBM E-score” value was 0.348. For TAAAATAA, the “PBM E-score” value was 0.0137. CGGACTTC was tested, and the “PBM E-score” value was 0.473. With GCTCGACC the “PBM E-score” value was -0.131. In the case of ACAGTAAT, the “PBM E-score” value was -0.0156. CTGGTGCC was tested, and the “PBM E-score” value was -0.216. For ATACCATA, the “PBM E-score” value was -0.115. CGTTGAGC was tested, and the “PBM E-score” value was 0.00593. With ACGCCCGT the “PBM E-score” value was 0.155. In the case of TGGACGAA, the “PBM E-score” value was -0.116. In the case of AAATAACT, the “PBM E-score” value was 0.00399. In the case of CATTAAGG, the “PBM E-score” value was -0.145. With CGACACCG the “PBM E-score” value was 0.296. In the case of AGCTATGG, the “PBM E-score” value was -0.148. For ACGGCGAA, the “PBM E-score” value was 0.21. For ATCTGTAC, the “PBM E-score” value was 0.0146. With CATGAAAC the “PBM E-score” value was -0.0717. In the case of TACGTCCA, the “PBM E-score” value was -0.105. CCCTGGTA was tested, and the “PBM E-score” value was -0.264. For GTCGACGA, the “PBM E-score” value was 0.028. CAACCTAA was tested, and the “PBM E-score” value was -0.243. GAAAGGCA was tested, and the “PBM E-score” value was 0.0414. With GGAGTGGA the “PBM E-score” value was 0.157. With CTAGCGTC the “PBM E-score” value was -0.238. For ACTGTATA, the “PBM E-score” value was -0.108. In the case of AGTGATCG, the “PBM E-score” value was -0.144. With ATGAACGG the “PBM E-score” value was 0.00535. In the case of CAAAGAAC, the “PBM E-score” value was -0.0262. With ACCTCAAC the “PBM E-score” value was -0.142. With CCATCAGA the “PBM E-score” value was -0.214. GTATAGAA was tested, and the “PBM E-score” value was -0.095. AGGATCAC was tested, and the “PBM E-score” value was -0.162. In the case of CCCTCAAG, the “PBM E-score” value was -0.169. For CTGACGTA, the “PBM E-score” value was -0.0906. With CTCGGTGA the “PBM E-score” value was 0.146. For GAGAGATA, the “PBM E-score” value was -0.0188. CCTACAAG was tested, and the “PBM E-score” value was -0.0328. For ATGATAGA, the “PBM E-score” value was -0.0135. With CGACTCTA the “PBM E-score” value was -0.137. With CCCTGACC the “PBM E-score” value was -0.169. With CACCACAG the “PBM E-score” value was -0.0569. In the case of ACCAAACA, the “PBM E-score” value was -0.114. ACAGCCCC was tested, and the “PBM E-score” value was 0.0291. With GCGCAGAC the “PBM E-score” value was -0.00291. CTCCCGAC was tested, and the “PBM E-score” value was 0.158. With AAGGCTTC the “PBM E-score” value was -0.0609. With ACGCGATG the “PBM E-score” value was 0.0899. With CCAGAAGA the “PBM E-score” value was -0.336. CCTTTCAA was tested, and the “PBM E-score” value was -0.0451. With CGGTTCAG the “PBM E-score” value was 0.0401. CAGAAATG was tested, and the “PBM E-score” value was -0.269. With GGGTGAGA the “PBM E-score” value was -0.0949. With ACCATTTC the “PBM E-score” value was -0.0163. In the case of CCCGTAAG, the “PBM E-score” value was -0.121. For AACCCATC, the “PBM E-score” value was -0.0461. In the case of ATGGACAT, the “PBM E-score” value was -0.0871. For CCTCTTTA, the “PBM E-score” value was -0.185. For GTAGTGTA, the “PBM E-score” value was -0.142. In the case of ATTATTGG, the “PBM E-score” value was 0.143. For GCTAAAGC, the “PBM E-score” value was 0.00721. In the case of CCTAGATC, the “PBM E-score” value was -0.178. ACTCTGCA was tested, and the “PBM E-score” value was -0.118. With GCGAGCCA the “PBM E-score” value was -0.0892. For CAGATCGG, the “PBM E-score” value was 0.204. For CGTACAGC, the “PBM E-score” value was 0.0807. With ATCACCTG the “PBM E-score” value was -0.0659. In the case of GACCCAAA, the “PBM E-score” value was -0.0868. With TAAGTGAA the “PBM E-score” value was -0.072. CGCCACCC was tested, and the “PBM E-score” value was -0.175. GGCAAGAC was tested, and the “PBM E-score” value was -0.0213. In the case of GTTATTCA, the “PBM E-score” value was -0.135. For ATGCACTA, the “PBM E-score” value was -0.231. GCCCTCCC was tested, and the “PBM E-score” value was 0.0213. With AGCGATAT the “PBM E-score” value was -0.154. For CAAAATAC, the “PBM E-score” value was 0.027. With CCAATTGA the “PBM E-score” value was -0.183. With GATCGACC the “PBM E-score” value was 0.0768. ACCCGACC was tested, and the “PBM E-score” value was 0.121. With TAGGGCAA the “PBM E-score” value was -0.123. For CAGTCATA, the “PBM E-score” value was -0.0452. With CCGCTTGA the “PBM E-score” value was 0.111. With AACAGGCG the “PBM E-score” value was -0.0358. For GCGTGGCA, the “PBM E-score” value was -0.137. ATAATGTA was tested, and the “PBM E-score” value was -0.133. With CAGTGTTA the “PBM E-score” value was 0.0269. In the case of CAGCTATG, the “PBM E-score” value was -0.344. For CATGGACA, the “PBM E-score” value was -0.336. In the case of CATGTCCA, the “PBM E-score” value was 0.083. GTCGCGCA was tested, and the “PBM E-score” value was 0.188. For CTACCCAA, the “PBM E-score” value was -0.213. With CTACAAAG the “PBM E-score” value was -0.199. For AGTGACAG, the “PBM E-score” value was -0.079. For GATCAGAA, the “PBM E-score” value was -0.275. For CATTCAGC, the “PBM E-score” value was -0.00713. For AAGGGCAA, the “PBM E-score” value was 0.124. With ATACCCCG the “PBM E-score” value was 0.401. For ACAGCGTA, the “PBM E-score” value was -0.088. In the case of GAAGGACA, the “PBM E-score” value was 0.098. ACTCTACG was tested, and the “PBM E-score” value was -0.208. With GGCCTGAA the “PBM E-score” value was -0.0348. For GGAAACCA, the “PBM E-score” value was 0.0346. With ACTTGTCG the “PBM E-score” value was 0.0472. In the case of CAATCAAC, the “PBM E-score” value was 0.0184. For AGTTTCTC, the “PBM E-score” value was -0.0203. With AAATGTAA the “PBM E-score” value was 0.00897. With AGTTCCTA the “PBM E-score” value was -0.0971. With CTCCCAGA the “PBM E-score” value was -0.274. GCCATGGC was tested, and the “PBM E-score” value was -0.217. ACAGAAGC was tested, and the “PBM E-score” value was -0.0288.
